Measurements published in the supplement of paper PMC11125491.
± gives the standard deviation of the averaged measurements. Growth of baker's yeast expressing single-residue variants of Pneumocystis jirovecii dihydrofolate reductase in 8.8 or 44 µM methotrexate (about 75% and 90% inhibition of the wild type). Selection coefficient per generation; 0 = like wild type, above 0 = less sensitive, below 0 = more sensitive or loss of function. No active / inactive call per row; the paper calls resistant above 0.220 (8.8 µM) or 0.243 (44 µM) together with a significance test. At 44 µM about 15% of codons end with one read or none, so the lowest values are floors (replicate rank correlation 0.74; 0.94 at 8.8 µM).

B1: UniProt A0EPZ9; numbered along this chain (parent)
chain: MDWQKSLTLIVALTLSRGIGLKNDLPWKLKSDMMFFSRVTSGLLVTRSTGQMNVVLMGRKTWESLPAHSRPLKNRINVVISRQEVLDLGGGAYHARSLDDALALLSQIYDSTSKIQLNRVFVIGGGELCKAAMEHSRLNRIIATVIHNEVDCDVFFPIDFRSSQSCLPWRKQDHSVLEAWVGSKVPQGKINENGFIYEFEMWIRDI

Variants of: B1
Assay: selection coefficient against synonymous wild-type codons (log2 per generation); higher = faster growth than wild type
Conditions: with Saccharomyces cerevisiae carrying the variant on a plasmid
Description: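 Pooled growth of yeast carrying single-residue variants of P. jirovecii dihydrofolate reductase (own DFR1 gene intact), two passages at 30 °C, three cultures, sequenced before and after. Codons with under 15 starting reads are left out; codons of one change are averaged.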

Row | Variant | selection coefficient against synonymous wild-type codons (log2) (methotrexate 8.8 µM) | selection coefficient against synonymous wild-type codons (log2) (methotrexate 44 µM)
1 | MDWQKSLTLIVALTLSRGIGLKIDLPWKLKSDMMFFSRVTSGLLVTRSTGQMNVVLMGRKTWESLPAHSRPLKNRINVVISRQEVLDLGGGAYHARSLDDALALLSQIYDSTSKIQLNRVFVIGGGELCKAAMEHSRLNRIIATVIHNEVDCDVFFPIDFRSSQSCLPWRKQDHSVLEAWVGSKVPQGKINENGFIYEFEMWIRDI [N23I] | -0.039 ± 0.057 | 0.0142 ± 0.083
2 | MDWQKSLTLIVALTLSRGIGLKKDLPWKLKSDMMFFSRVTSGLLVTRSTGQMNVVLMGRKTWESLPAHSRPLKNRINVVISRQEVLDLGGGAYHARSLDDALALLSQIYDSTSKIQLNRVFVIGGGELCKAAMEHSRLNRIIATVIHNEVDCDVFFPIDFRSSQSCLPWRKQDHSVLEAWVGSKVPQGKINENGFIYEFEMWIRDI [N23K] | -0.0433 ± 0.076 | -0.0133 ± 0.051
3 | MDWQKSLTLIVALTLSRGIGLKDDLPWKLKSDMMFFSRVTSGLLVTRSTGQMNVVLMGRKTWESLPAHSRPLKNRINVVISRQEVLDLGGGAYHARSLDDALALLSQIYDSTSKIQLNRVFVIGGGELCKAAMEHSRLNRIIATVIHNEVDCDVFFPIDFRSSQSCLPWRKQDHSVLEAWVGSKVPQGKINENGFIYEFEMWIRDI [N23D] | 0.296 ± 0.05 | 0.329 ± 0.044
4 | MDWQKSLTLIVALTLSRGIGLKLDLPWKLKSDMMFFSRVTSGLLVTRSTGQMNVVLMGRKTWESLPAHSRPLKNRINVVISRQEVLDLGGGAYHARSLDDALALLSQIYDSTSKIQLNRVFVIGGGELCKAAMEHSRLNRIIATVIHNEVDCDVFFPIDFRSSQSCLPWRKQDHSVLEAWVGSKVPQGKINENGFIYEFEMWIRDI [N23L] | -0.124 ± 0.072 | -0.156 ± 0.11
5 | MDWQKSLTLIVALTLSRGIGLKRDLPWKLKSDMMFFSRVTSGLLVTRSTGQMNVVLMGRKTWESLPAHSRPLKNRINVVISRQEVLDLGGGAYHARSLDDALALLSQIYDSTSKIQLNRVFVIGGGELCKAAMEHSRLNRIIATVIHNEVDCDVFFPIDFRSSQSCLPWRKQDHSVLEAWVGSKVPQGKINENGFIYEFEMWIRDI [N23R] | -0.149 ± 0.078 | -0.102 ± 0.1
6 | MDWQKSLTLIVALTLSRGIGLKSDLPWKLKSDMMFFSRVTSGLLVTRSTGQMNVVLMGRKTWESLPAHSRPLKNRINVVISRQEVLDLGGGAYHARSLDDALALLSQIYDSTSKIQLNRVFVIGGGELCKAAMEHSRLNRIIATVIHNEVDCDVFFPIDFRSSQSCLPWRKQDHSVLEAWVGSKVPQGKINENGFIYEFEMWIRDI [N23S] | -0.0377 ± 0.038 | -0.0181 ± 0.065
7 | MDWQKSLTLIVALTLSRGIGLKFDLPWKLKSDMMFFSRVTSGLLVTRSTGQMNVVLMGRKTWESLPAHSRPLKNRINVVISRQEVLDLGGGAYHARSLDDALALLSQIYDSTSKIQLNRVFVIGGGELCKAAMEHSRLNRIIATVIHNEVDCDVFFPIDFRSSQSCLPWRKQDHSVLEAWVGSKVPQGKINENGFIYEFEMWIRDI [N23F] | -0.179 ± 0.048 | -0.0304 ± 0.023
8 | MDWQKSLTLIVALTLSRGIGLKGDLPWKLKSDMMFFSRVTSGLLVTRSTGQMNVVLMGRKTWESLPAHSRPLKNRINVVISRQEVLDLGGGAYHARSLDDALALLSQIYDSTSKIQLNRVFVIGGGELCKAAMEHSRLNRIIATVIHNEVDCDVFFPIDFRSSQSCLPWRKQDHSVLEAWVGSKVPQGKINENGFIYEFEMWIRDI [N23G] | -0.0801 ± 0.043 | -0.0895 ± 0.12
9 | MDWQKSLTLIVALTLSRGIGLKPDLPWKLKSDMMFFSRVTSGLLVTRSTGQMNVVLMGRKTWESLPAHSRPLKNRINVVISRQEVLDLGGGAYHARSLDDALALLSQIYDSTSKIQLNRVFVIGGGELCKAAMEHSRLNRIIATVIHNEVDCDVFFPIDFRSSQSCLPWRKQDHSVLEAWVGSKVPQGKINENGFIYEFEMWIRDI [N23P] | -0.0619 ± 0.046 | -0.113 ± 0.097
10 | MDWQKSLTLIVALTLSRGIGLKMDLPWKLKSDMMFFSRVTSGLLVTRSTGQMNVVLMGRKTWESLPAHSRPLKNRINVVISRQEVLDLGGGAYHARSLDDALALLSQIYDSTSKIQLNRVFVIGGGELCKAAMEHSRLNRIIATVIHNEVDCDVFFPIDFRSSQSCLPWRKQDHSVLEAWVGSKVPQGKINENGFIYEFEMWIRDI [N23M] | -0.0901 ± 0.085 | -0.118 ± 0.13
11 | MDWQKSLTLIVALTLSRGIGLKEDLPWKLKSDMMFFSRVTSGLLVTRSTGQMNVVLMGRKTWESLPAHSRPLKNRINVVISRQEVLDLGGGAYHARSLDDALALLSQIYDSTSKIQLNRVFVIGGGELCKAAMEHSRLNRIIATVIHNEVDCDVFFPIDFRSSQSCLPWRKQDHSVLEAWVGSKVPQGKINENGFIYEFEMWIRDI [N23E] | 0.223 ± 0.017 | 0.199 ± 0.081
12 | MDWQKSLTLIVALTLSRGIGLKHDLPWKLKSDMMFFSRVTSGLLVTRSTGQMNVVLMGRKTWESLPAHSRPLKNRINVVISRQEVLDLGGGAYHARSLDDALALLSQIYDSTSKIQLNRVFVIGGGELCKAAMEHSRLNRIIATVIHNEVDCDVFFPIDFRSSQSCLPWRKQDHSVLEAWVGSKVPQGKINENGFIYEFEMWIRDI [N23H] | 0.076 ± 0.066 | 0.0239 ± 0.047
13 | MDWQKSLTLIVALTLSRGIGLKCDLPWKLKSDMMFFSRVTSGLLVTRSTGQMNVVLMGRKTWESLPAHSRPLKNRINVVISRQEVLDLGGGAYHARSLDDALALLSQIYDSTSKIQLNRVFVIGGGELCKAAMEHSRLNRIIATVIHNEVDCDVFFPIDFRSSQSCLPWRKQDHSVLEAWVGSKVPQGKINENGFIYEFEMWIRDI [N23C] | 0.0125 ± 0.062 | -0.101 ± 0.18
14 | MDWQKSLTLIVALTLSRGIGLKTDLPWKLKSDMMFFSRVTSGLLVTRSTGQMNVVLMGRKTWESLPAHSRPLKNRINVVISRQEVLDLGGGAYHARSLDDALALLSQIYDSTSKIQLNRVFVIGGGELCKAAMEHSRLNRIIATVIHNEVDCDVFFPIDFRSSQSCLPWRKQDHSVLEAWVGSKVPQGKINENGFIYEFEMWIRDI [N23T] | 0.0305 ± 0.037 | 0.0699 ± 0.04
15 | MDWQKSLTLIVALTLSRGIGLKQDLPWKLKSDMMFFSRVTSGLLVTRSTGQMNVVLMGRKTWESLPAHSRPLKNRINVVISRQEVLDLGGGAYHARSLDDALALLSQIYDSTSKIQLNRVFVIGGGELCKAAMEHSRLNRIIATVIHNEVDCDVFFPIDFRSSQSCLPWRKQDHSVLEAWVGSKVPQGKINENGFIYEFEMWIRDI [N23Q] | -0.0221 ± 0.089 | -0.0394 ± 0.062
